# pIC50: −log10 of the molar value. The IC50 comes from the fitted curve, where viability falls to half of the control; fits outside the tested doses are given as limits. For AUC the same curve is integrated over the 256-fold range of doses and scaled to a fraction: 1 means no effect, lower means more sensitive. An inferred top dose comes from the curve model; the source does not state it.
# Compound: CC1=C(C(=O)Nc2cc3cn[nH]c3cc2F)C(c2ccc(C(F)(F)F)cc2)CC(=O)N1 [GSK429286A]
# Assay: Viability of human cancer cell lines after 72 h of drug (GDSC screen)
# Conditions: top dose inferred
# Procedure: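 Human cancer cell lines in 384-well plates, medium with 10% serum, drug for 72 h over a 256-fold dose range (nine 2-fold or five 4-fold steps up to the top dose). Adherent lines were fixed and stained with the nucleic acid dye Syto60, suspension lines read with resazurin; signal relative to control wells, capped at 0 and 100%. One two-parameter sigmoid per drug and line, fitted in a mixed model over all curves with the slope shared within a line.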
Cell Line,AUC,pIC50
"HCC1187 (breast, suspension, top dose 20 µM)",0.921,< 4.70
"NCI-H720 (lung carcinoid, suspension, top dose 20 µM)",0.992,< 4.70
"TALL-1 (T-cell lymphoblastic leukaemia, suspension, top dose 20 µM)",0.977,< 4.70
"EBC-1 (lung squamous cell carcinoma, adherent, top dose 20 µM)",0.97,< 4.70
"UACC-893 (breast, adherent, top dose 20 µM)",0.967,< 4.70
"NCI-H1755 (lung adenocarcinoma, adherent, top dose 20 µM)",0.882,< 4.70
"PFSK-1 (medulloblastoma, adherent, top dose 20 µM)",0.977,< 4.70
"CAMA-1 (breast, adherent, top dose 20 µM)",0.966,< 4.70
"NU-DUL-1 (B-cell lymphoma, suspension, top dose 20 µM)",0.957,< 4.70
"TE-6 (oesophagus, adherent, top dose 20 µM)",0.986,< 4.70
"OS-RC-2 (kidney, adherent, top dose 20 µM)",0.95,< 4.70
"NCI-H23 (lung adenocarcinoma, adherent, top dose 20 µM)",0.854,4.81
"SNU-387 (liver, adherent, top dose 20 µM)",0.983,< 4.70
"RCC-MF (kidney, adherent, top dose 20 µM)",0.968,< 4.70
"HOP-62 (lung adenocarcinoma, adherent, top dose 20 µM)",0.984,< 4.70
"SBC-3 (small cell lung carcinoma, adherent, top dose 20 µM)",0.947,< 4.70
"TE-5 (oesophagus, adherent, top dose 20 µM)",0.981,< 4.70
"JHH-7 (liver, adherent, top dose 20 µM)",0.985,< 4.70
"RCC-JF (kidney, adherent, top dose 20 µM)",0.727,5.22
"MPP-89 (mesothelioma, adherent, top dose 20 µM)",0.966,< 4.70
"OCI-LY-19 (B-cell lymphoma, suspension, top dose 20 µM)",0.975,< 4.70
"MLMA (hairy cell leukaemia, semi-adherent, top dose 20 µM)",0.93,< 4.70
"HCC1937 (breast, adherent, top dose 20 µM)",0.985,< 4.70
"NCI-H2452 (mesothelioma, adherent, top dose 20 µM)",0.984,< 4.70
"SK-MEL-28 (melanoma, adherent, top dose 20 µM)",0.981,< 4.70
"L-540 (Hodgkin lymphoma, suspension, top dose 20 µM)",0.957,< 4.70
"ONS-76 (medulloblastoma, adherent, top dose 20 µM)",0.937,< 4.70

Cell Line,AUC,pIC50
"HT-29 (large intestine, adherent, top dose 20 µM)",0.982,< 4.70
"ES6 (Ewing sarcoma, adherent, top dose 20 µM)",0.92,< 4.70
"NCI-H1688 (small cell lung carcinoma, adherent, top dose 20 µM)",0.985,< 4.70
"NCI-H526 (small cell lung carcinoma, suspension, top dose 20 µM)",0.979,< 4.70
"VCaP (prostate, adherent, top dose 20 µM)",0.981,< 4.70
"BFTC-905 (bladder, adherent, top dose 20 µM)",0.99,< 4.70
"A4-Fuk (B-cell lymphoma, suspension, top dose 20 µM)",0.935,< 4.70
"H-EMC-SS (chondrosarcoma, adherent, top dose 20 µM)",0.942,< 4.70
"P30-OHK (lymphoblastic leukaemia, suspension, top dose 20 µM)",0.858,4.91
"NB17 (neuroblastoma, adherent, top dose 20 µM)",0.982,< 4.70
"G-402 (soft tissue, adherent, top dose 20 µM)",0.906,< 4.70
"UACC-257 (melanoma, adherent, top dose 20 µM)",0.98,< 4.70
"MDA-MB-231 (breast, adherent, top dose 20 µM)",0.92,< 4.70
"DMS-53 (small cell lung carcinoma, adherent, top dose 20 µM)",0.988,< 4.70
"U-87-MG (glioma, adherent, top dose 20 µM)",0.981,< 4.70
"MFE-319 (endometrium, adherent, top dose 20 µM)",0.987,< 4.70
"MDA-MB-436 (breast, adherent, top dose 20 µM)",0.983,< 4.70
"KU812 (chronic myeloid leukaemia, suspension, top dose 20 µM)",0.885,4.73
"PANC-03-27 (pancreas, adherent, top dose 20 µM)",0.989,< 4.70
"TOV-21G (ovary, adherent, top dose 20 µM)",0.981,< 4.70
"SCC-25 (head and neck, adherent, top dose 20 µM)",0.984,< 4.70
"TMK-1 (stomach, adherent, top dose 20 µM)",0.986,< 4.70
"HD-MY-Z (Hodgkin lymphoma, adherent, top dose 20 µM)",0.945,< 4.70
"NCI-H3122 (lung adenocarcinoma, adherent, top dose 20 µM)",0.983,< 4.70
"SCH (stomach, adherent, top dose 20 µM)",0.987,< 4.70
"SW962 (urogenital system, adherent, top dose 20 µM)",0.957,< 4.70
"IM-95 (stomach, adherent, top dose 20 µM)",0.974,< 4.70

Cell Line,AUC,pIC50
"PL-21 (acute myeloid leukaemia, suspension, top dose 20 µM)",0.782,5.01
"COR-L311 (small cell lung carcinoma, suspension, top dose 20 µM)",0.692,5.35
"MN-60 (B-cell leukaemia, suspension, top dose 20 µM)",0.963,< 4.70
"OVCAR-5 (ovary, adherent, top dose 20 µM)",0.972,< 4.70
"D-336MG (glioma, adherent, top dose 20 µM)",0.874,< 4.70
"NCI-H838 (lung adenocarcinoma, adherent, top dose 20 µM)",0.986,< 4.70
"T-T (oesophagus, adherent, top dose 20 µM)",0.987,< 4.70
"HuCCT1 (biliary tract, adherent, top dose 20 µM)",0.984,< 4.70
"LC-1-sq (lung squamous cell carcinoma, adherent, top dose 20 µM)",0.971,< 4.70
"SBC-1 (small cell lung carcinoma, suspension, top dose 20 µM)",0.984,< 4.70
"LK-2 (lung squamous cell carcinoma, adherent, top dose 20 µM)",0.955,< 4.70
"P31-FUJ (acute myeloid leukaemia, suspension, top dose 20 µM)",0.988,< 4.70
"KP-2 (pancreas, adherent, top dose 20 µM)",0.984,< 4.70
"UACC-812 (breast, adherent, top dose 20 µM)",0.991,< 4.70
"SBC-5 (small cell lung carcinoma, adherent, top dose 20 µM)",0.993,< 4.70
"YMB-1-E (breast, adherent, top dose 20 µM)",0.98,< 4.70
"TGW (neuroblastoma, adherent, top dose 20 µM)",0.903,4.70
"MSTO-211H (mesothelioma, adherent, top dose 20 µM)",0.991,< 4.70
"EW-3 (Ewing sarcoma, adherent, top dose 20 µM)",0.977,< 4.70
"WM278 (melanoma, adherent, top dose 20 µM)",0.968,< 4.70
"HT55 (large intestine, adherent, top dose 20 µM)",0.99,< 4.70
"NCI-H596 (lung adenocarcinoma, adherent, top dose 20 µM)",0.961,< 4.70
"KINGS-1 (glioma, adherent, top dose 20 µM)",0.978,< 4.70
"KYSE-450 (oesophagus, adherent, top dose 20 µM)",0.94,< 4.70
"U251 (glioma, adherent, top dose 20 µM)",0.975,< 4.70
"SUP-HD1 (Hodgkin lymphoma, suspension, top dose 20 µM)",0.94,< 4.70

# Reference: the supplement of paper PMC4967469
